Experimental data as given in article PMC6919601, “Identification of Plasmodium dipeptidyl aminopeptidase allosteric inhibitors by high throughput screening” (PLoS ONE, 2019).
The campaign covered roughly 110,000 compounds. About 230 (0.21%) showed an effect of 50% or more. Some of the results follow.

Each molecule was assayed against DPAP1 (Plasmodium falciparum, UniProt Q8IIJ9) (assay: primary screen, percent inhibition; read by cleavage of a fluorogenic dipeptide substrate; higher = more effect of the substance).
DPAP1, sequence (Q8IIJ9 whole entry, looked up): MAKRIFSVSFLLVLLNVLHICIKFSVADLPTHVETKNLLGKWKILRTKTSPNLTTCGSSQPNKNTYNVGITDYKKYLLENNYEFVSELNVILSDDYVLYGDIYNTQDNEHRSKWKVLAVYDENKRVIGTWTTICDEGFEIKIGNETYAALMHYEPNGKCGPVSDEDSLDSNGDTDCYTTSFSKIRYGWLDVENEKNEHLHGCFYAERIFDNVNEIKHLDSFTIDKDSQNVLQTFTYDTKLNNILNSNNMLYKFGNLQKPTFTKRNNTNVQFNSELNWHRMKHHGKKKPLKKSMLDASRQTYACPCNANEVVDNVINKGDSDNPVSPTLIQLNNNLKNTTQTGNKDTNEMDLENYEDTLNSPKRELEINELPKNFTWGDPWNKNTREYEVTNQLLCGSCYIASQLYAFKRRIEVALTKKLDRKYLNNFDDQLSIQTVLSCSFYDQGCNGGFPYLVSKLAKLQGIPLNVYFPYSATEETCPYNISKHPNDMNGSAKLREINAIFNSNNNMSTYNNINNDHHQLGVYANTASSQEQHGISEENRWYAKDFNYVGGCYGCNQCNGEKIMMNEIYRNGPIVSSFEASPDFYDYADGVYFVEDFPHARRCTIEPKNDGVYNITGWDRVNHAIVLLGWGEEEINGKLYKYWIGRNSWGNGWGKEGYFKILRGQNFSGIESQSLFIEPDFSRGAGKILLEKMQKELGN
Set-up: species or system P. falciparum D10 trophozoite lysates; single well
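Note: 30 min substrate incubation versus DMSO and 10 µM JCP410 controls.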

SMILES	% Inhibition @ 10 uM [%]
O=C(Nc1ccc(Cc2ccc(NC(=O)N3CCCCC3)cc2)cc1)N1CCCCC1	2.38
O=C(NCc1ccccc1)C1CCN(S(=O)(=O)N2CCCCCC2)CC1	-4.06
CCOc1ccccc1N1CCN(Cc2cc(Br)c(OC)cc2OC)CC1	-3.56
COc1ccc(S(=O)(=O)c2cc3ccccc3oc2=O)cc1	-4.97
Cc1ccc(Oc2ccc(C(F)(F)F)cc2NC(=O)c2cccnc2)cc1	2.82
CC(C)=CCCCCCCN1CCN(c2ccccc2F)CC1	-2.95
N#Cc1ccccc1CSc1nc2ccccc2[nH]1	-1.8
CCCCOC(=O)CNC1CC(C)(C)NC(C)(C)C1	-7.35
CCOC(=O)N1CCN(Cc2ccc(F)cc2)CC1	5.8
CN(C)CC(C)(C)CNC1Cc2ccccc2C1	-7.35
Oc1ccccc1C1=NN2C(C1)c1ccccc1OC2c1cccnc1 (stereo not drawn)	-1.68
O=C(O)c1cccn1-c1nnc(N2CCCCCC2)s1	0.0198
CCCN1CCN(C(=O)Cn2ncc3c(C)n(Cc4ccc(C)cc4)c(C)c3c2=O)CC1	-7.72
COc1cccc(C2C3=C(O)CCCC3=Nc3nc(SC)nn32)c1OC (stereo not drawn)	-1.62
Cc1ccc(S(=O)(=O)/N=C(/NC2CCCCC2)c2ccc(F)cc2)cc1	-1.4
Cc1cc(C)c(Cn2c(C)nc3ccccc32)c(C)c1	-0.0235
CCc1nnc(NC(=O)CSc2nnnn2-c2ccccc2)s1	-1.26
C=CCN1C(=O)/C(=C/c2ccccc2OC)C(=O)NC1=S	0.467
O=C(CCNS(=O)(=O)c1ccc(Br)s1)NC1CCN(Cc2ccccc2)CC1	2.01
CCOc1cc(NC(=O)c2ccccc2)c(OCC)cc1N	0.431
CCOC(=O)C1=CN(Cc2ccc(OC)cc2)C=C(C(=O)OCC)C1c1ccccc1OC(C)C	1.86
Cc1ccc(NC(=O)CC(C(=O)O)N2CCN(C)CC2)cc1Cl (stereo not drawn)	3.58
Cc1ccc(OCc2nc(-c3ccc(C(=O)NCc4ccc(C)o4)cc3)oc2C)cc1	-4.4
C=C(C)Cn1c(N2CCOCC2)nc2c1c(=O)[nH]c(=O)n2C	-1.32
O=C(c1cccc(C(=O)N2CCc3ccccc32)c1)N1CCc2ccccc21	-1.96
COc1ccc(C2CC3=NC(C)=C(C(=O)Nc4cccc(C)n4)C(c4ccc(F)cc4)C3=C(O)C2)cc1 (stereo not drawn)	5.18

SMILES	% Inhibition @ 10 uM [%]
Nc1ncc(Br)nc1Br	-2.88
O=C(c1ccccc1)c1cnc2ccc(F)cc2c1N1CCOCC1	-1.69
Cc1ccc(NC(=O)c2ccccc2C)c([N+](=O)[O-])c1	0.247
CCO/C(O)=C/C1=NC2(CCCCC2)Cc2cc(OC)c(OC)cc21	7.67
CC1CCc2nn(CC(=O)NCCN3CCCCC3C)cc2C1 (stereo not drawn)	-3.35
CC1CCc2c(sc(NC(=O)Cc3ccccc3)c2C#N)C1 (stereo not drawn)	-2.56
COc1ccc(C2C(C(C)=O)=C(C)N=c3s/c(=C/c4ccc(N(C)C)cc4)c(=O)n32)cc1 (stereo not drawn)	5.87
CCCCNC(=O)C1CCCN(c2nc3ccc(OC)cc3s2)C1 (stereo not drawn)	2.59
O=C(Nc1ccc2nc(SCc3ccccc3)sc2c1)c1ccccc1	-3.5
CC(=O)Nc1cccc(NC(=O)c2c(-c3c(Cl)cccc3Cl)noc2C)c1	6
O=C1N=C(N2CCCCCC2)S/C1=C/c1ccccc1	3.84
COc1ccc(C)cc1C1=C/C(=C\c2ccc(C)o2)C(=O)O1	-10.8
c1ccc2c(c1)c(NCc1ccc3c(c1)OCO3)nn1cnnc21	0.675
CCCSCCCNC(=O)Cn1nc(C)n2cccc2c1=O	-2.15
CC1=NN(C(=O)c2cccc(C)c2O)C(O)(C(F)(F)F)C1 (stereo not drawn)	-2.67
COCCCNc1ncnc2onc(C)c12	-0.349
CCN1CCCC1CNC(=O)c1nnc(Cc2ccc(F)cc2)o1 (stereo not drawn)	1.19
CS(=O)(=O)CCC(C(=O)N1CCC2(CC1)OCCO2)N1Cc2ccccc2C1=O (stereo not drawn)	0.56
COc1ccc(CCN2CC(=O)N3CCCC(c4cc(O)ccc4O)=C3C2=O)cc1OC	0.222
Cn1c(=O)c2sccc2n2c(CCCC(=O)N3CCN(Cc4ccccc4)CC3)nnc12	-1.59
COC(=O)c1ccc(C2Nn3c(nnc3-c3ccccc3)SC2C(=O)NCc2ccco2)cc1 (stereo not drawn)	4.93
C=CC[C@H]1CC(Cc2ccccc2)=C[C@H](CC=C)N1	-10.5
C=CCOC(=O)C1=C(C)N=C2SCCC(=O)N2C1c1ccc(Cl)c(Cl)c1 (stereo not drawn)	-1.4
CCOc1ccc(-c2c(C#N)c(N)nc(OC)c2C#N)cc1	-5.5
O=C(N1CC=C(c2c[nH]c3ccccc23)CC1)n1ccnc1	-1.75
Cc1nc2ccccc2n1CCOc1ccccc1Cl	0.162

SMILES	% Inhibition @ 10 uM [%]
N#Cc1c(N)nc(S)c(C#N)c1-c1cccc(Cl)c1	49.6
COC(=O)C1=C(C)NC(=O)CC1c1cccc(Cl)c1Cl (stereo not drawn)	1.84
CCN1CCN(c2nc3c(c(=O)n(C)c(=O)n3C)n2Cc2ccc(Br)cc2)CC1	3.35
COc1cc(C2C(C(=O)c3ccccc3)=C(O)C(=O)N2CCN(C)C)ccc1O (stereo not drawn)	7.73
CC(C)(C)NS(=O)(=O)c1ccc(NC(=O)Nc2ccc(Cl)cc2)cc1	1.64
COc1ccc(/C=C2\N=C(SC)N(C)C2=O)cc1	0.76
Cc1ccc(C2CC(=O)NC(SCc3ccccc3)=C2C#N)cc1 (stereo not drawn)	2.01
COc1ccc(/C=C2\C(=O)N(c3cccc(F)c3)N=C2C)cc1	0.219
CCCCCCNC(=O)CC(NS(=O)(=O)c1ccc(C)cc1)c1ccco1 (stereo not drawn)	1.27
CCOC(=O)C1=C(CS(=O)(=O)c2ccccc2)NC(=O)NC1c1cc(OC)c(OC)cc1OC (stereo not drawn)	1.24
NC(=O)c1cnn(-c2cc(Oc3ccccc3)ncn2)c1N	1.64
Nc1c(C(=O)c2cccc([N+](=O)[O-])c2)sc2nccc(Nc3ccccc3)c12	5.77
CCOCCCNC1CCN(CCc2ccccc2)CC1	-3.82
Cc1ccc(C2C(C#N)=C(N)Oc3cc4c(cc32)OCO4)cc1 (stereo not drawn)	-5.96
COc1ccc(S(=O)(=O)Nc2ccccc2F)cc1OC	-7.02
COc1ccc(/C=C/C=C(\C#N)S(=O)(=O)c2ccccc2)cc1	-3.9
C=CCn1c(SCc2ccccc2)nc(=O)c(CC)c1O	-3.15
Cn1nnnc1SCCCNCC#Cc1ccccc1	5.39
COc1c(Cl)cc(Cl)cc1C(=O)N1CCOCC1	-1.8
CCCCNC(=O)Cn1ncc2c1-c1cc(C)ccc1OC2	-3.5
CC(C)(C)NC(=O)COc1ccc(CNc2ccc3c(c2)OCCO3)cc1	2.01
O=C(Cc1cccc2ccccc12)Nc1cnc2ccccc2c1	-1.46
Cc1ccc(Cn2c(C(=O)O)c(CNCCc3ccccc3C)c3ccc(C)cc32)cc1	7.87
c1ccc(CN2CCC(NC3CCc4ccccc4C3)CC2)cc1 (stereo not drawn)	-2.95
c1ccc(-c2csc3ncnc(N4CCOCC4)c23)cc1	2.38
Cc1cc(C)c(C)c(OCC(=O)NCc2nc(-c3ccccc3)no2)c1	-2.99

SMILES	% Inhibition @ 10 uM [%]
CCOc1ccccc1CNC(=O)CN1C(=O)CSc2c1c(C)nn2-c1ccccc1	3.82
C=CCNC(=O)CN(C)S(=O)(=O)c1ccc(OC)c(OC)c1	-3.76
Cc1ccc(OCC(=O)Nc2ccccc2F)cc1	0.247
COc1ccc(CCNC(=O)C2Cc3ccccc3CN2S(=O)(=O)c2ccc(C)cc2)cc1OC (stereo not drawn)	-7.9
O=C(CN(Cc1ccccc1)S(=O)(=O)c1cc(Cl)ccc1Cl)N1CCOCC1	-0.185
COc1ccc(CNC(=O)c2coc(=O)c3ccccc23)cc1	-0.631
COc1cc(OC)cc(-c2nc3nc(C)c(CCC(=O)O)c(C)n3n2)c1	-1.03
Cc1c(Cl)cccc1NC(=O)CC1NCCNC1=O (stereo not drawn)	-5.81
O=C(NCCc1c[nH]c2ccccc12)C(F)(F)C(F)F	7.04
Cc1nc2ccccc2n1CCc1nc2c3ccccc3nc(N3CCC(C)CC3)n2n1	2.6
Cc1ccc(-c2cc(C(F)(F)F)n3nc(C(=O)N4CCOCC4)c(Cl)c3n2)cc1	-2.89
CC(=O)c1cc2c(cc1NC(=O)C1CCC1)OCO2	-3.19
O=C(CN(C1CCCCC1)S(=O)(=O)c1ccc(F)cc1)Nc1ccc(F)cc1	-1.36
COc1ccc(OCC(O)CNC(C)C)cc1 (stereo not drawn)	-4.24
Cn1c(=O)n(C)c2cc(/C=C3/SC(=O)N(CC(=O)N4CCOCC4)C3=O)ccc21	2.33
Cc1ccc2c(Cl)c(C(=O)Nc3ncc(C)s3)sc2c1	6.29
Cc1ccc(C(=O)Nc2sc3c(c2C#N)CCC(C)C3)o1 (stereo not drawn)	-3.63
O=C1C2C3CCC(O3)C2C(=O)N1c1ccccc1O (stereo not drawn)	-4.85
Cc1ccccc1NC(=O)CN(c1ccccc1F)S(C)(=O)=O	1.89
COc1ccc(CN2CCN(Cc3cccc(Cl)c3)CC2)cc1OC	-14.2
Cc1ccc(C(=O)c2cnc3cc4c(cc3c2N2CCCC2)OCO4)cc1C	-2.84
Fc1ccccc1C1CC(c2ccc(Br)cc2)=NN1c1cccc(Br)c1 (stereo not drawn)	-2.66
COC(=O)c1ccccc1-c1ccc(/C=C2\C(=O)NC(=O)C(C#N)=C2C)o1	2.17
CC(C)Oc1ccc(C(CC(=O)O)NC(=O)Cc2ccc(Cl)cc2)cc1 (stereo not drawn)	-6.28
